Results taken from PubChem BioAssay AID1671193 (National Center for Advancing Translational Sciences (NCATS), 2021).
The campaign covered roughly 150,000 compounds. About 180 (0.12%) were called active. Inconclusive means that the source gave no clear call. Such entries were picked first, then a sample of the others. The call rests on the fitted dose curve; in most records, active means well fitted cell-killing curve with a large enough effect; inconclusive means small, poorly fitted or top-dose-only effect, or effect the other way; inactive means flat fitted curve, though single readings scatter. Potencies beside an inconclusive call are fits to weak or partial responses and may not hold up.
Potency means the concentration at half of the fitted maximal effect; tags describe the fitted curve by direction and shape.

Test: GF-AFC viability counterscreen for inhibitors of alpha-synuclein gene (SNCA) expression; further: nearly all actives have a fitted effect of over 30% in size;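 on activity change, negative = cytotoxicity: 0% = DMSO-treated cells and -100% = medium-only wells without cells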
Details: HEK-293-SNCA-luc viability, GF-AFC fluorescence, 24 h; activity change, negative = cytotoxicity: at 57.1 µM (top of the series) unless noted
In short: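 Cytotoxicity counterscreen: after 24 h compound treatment of genome-edited SNCA-luciferase HEK-293 cells, live-cell protease substrate GF-AFC read by fluorescence after 30 min; activity scaled between DMSO (0%) and medium-only (-100%), curves Hill-fitted.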
With COCCC(=O)NC[C@@H]1C=C(C)[C@H](CC(=O)N(C)Cc2ccccc2)C[C@H]1C(C)C the Potency was inconclusive: 12.6 µM [cytotoxic, partial curve, poor fit].
In the case of COc1ccc(Cn2c(=O)c3ccccc3n3c(-c4cccc(OC)c4OC)nnc23)cc1, the Potency is reported as inconclusive: 3.98 µM [cytotoxic, partial curve, poor fit].
In the case of CNC(=O)[C@@H]1C[C@H](Oc2cccnc2)CN1C(=O)c1nccc2ccccc12, the Potency is reported as inconclusive: 5.62 µM [cytotoxic, single point].
In the case of Cc1cc(C)cc(-c2ccc(CN3CCCC(NC(=O)Nc4ccccc4)C3)cc2)c1 (stereo not given), the “activity change, negative = cytotoxicity” value is reported as inactive: -6.81%.
For CC1CCN(C(=O)CSc2nc3ccccc3nc2Cc2ccccc2)CC1, the Potency was inconclusive: 28.2 µM [cytotoxic, single point].
In the case of Cc1cccc2c1nc1n2[C@@H](CNC(=O)c2ccc3c(c2)OCO3)COC1, the Potency is reported as inconclusive: 28.2 µM [cytotoxic, partial curve].
With O=C(NC1CCCC1)N1CCCCC12Cc1ccccc1NC2=O (stereo not given) the Potency was inconclusive: 11.2 µM [cytotoxic, single point].
In the case of CC(C)NC(=O)N1Cc2ccccc2OC2(CCN(C(=O)c3cccc4[nH]ccc34)CC2)C1, the “activity change, negative = cytotoxicity” value is reported as inactive: 0.474%.
With CC(C)C[C@@H]1N[C@H](C(=O)NCc2ccccc2Cl)Cc2c[nH]c3cccc1c23 the Potency was inconclusive: 35.5 µM [cytotoxic, single point].
In the case of CCOc1cc(N2CCC(O)CC2)ccc1Nc1ncc2c(n1)N(C1CCCC1)CCC(=O)N2C, the “activity change, negative = cytotoxicity” value is reported as inactive: -15.7%.
In the case of CCN(Cc1cccc2nonc12)CC1CCCN(CCc2cccc(OC)c2)C1 (stereo not given), the Potency is reported as inconclusive: 39.8 µM [cytotoxic, single point].
With COCCN1C(=O)[C@@H]2C[C@@H](CN2C(=O)c2ccc3c(c2)OCO3)Oc2ccccc21 the “activity change, negative = cytotoxicity” value was inactive: 1.11% [at 87.6 µM].
In the case of COc1ccc(CCNC(=O)Cn2ccn3nc4c(c3c2=O)CCCCC4)cc1OC, the Potency is reported as inconclusive: 39.8 µM [cytotoxic, partial curve, poor fit].
For CNCC(=O)N1CCC2(CC1)CN(Cc1ccccc1)CC2CO (stereo not given), the Potency was inconclusive: 7.08 µM [cytotoxic, single point].
With CN(C)C(=O)c1ccc2cc[nH]c2n1 the Potency was inconclusive: 15.8 µM [cytotoxic, single point].
In the case of O=[N+]([O-])c1ccc(O)c(-c2ccnc3cc(-c4ccccc4)nn23)c1, the Potency is reported as inconclusive: 39.8 µM [cytotoxic, single point].
With COC(=O)C1CCN(C(=O)CC[C@H]2CNC(=O)[C@@H]3[C@@H](CCN3Cc3ccc(F)cc3)N2C)CC1 the “activity change, negative = cytotoxicity” value was inactive: 2.97%.
In the case of COc1ccc(C(=O)N2CCN(C(=O)N3CC4CC(C3)[C@H]3CCCC(=O)N3C4)CC2)cc1 (stereo not given in full), the Potency is reported as inconclusive: 3.98 µM [rising, full curve].
With Cc1ccc(Cn2cc(-c3ccncc3)cc2C(=O)N(C)Cc2ccccc2)cc1 the Potency was inconclusive: 28.2 µM [cytotoxic, single point].
In the case of O=c1ccc(N2CCC(NS(=O)(=O)c3ccccc3Cl)CC2)nn1CC1CC1, the Potency is reported as inconclusive: 39.8 µM [cytotoxic, single point].
In the case of N#C/C(=C\c1ccc(-c2cccc(Cl)c2)o1)C(=O)Nc1cccc(C(F)(F)F)c1, the Potency is reported as inconclusive: 1.58 µM [rising, partial curve, poor fit].
For COc1ccc(NC2=N[C@H]3[C@@H](O)[C@H](O)C[C@H](C(=O)NCc4ccccc4OC)[C@H]3S2)cc1, the “activity change, negative = cytotoxicity” value was inactive: -0.673%.
In the case of O=C1COc2ccc(-c3ccoc3)nc2CN1Cc1ccc(C(F)(F)F)cc1, the “activity change, negative = cytotoxicity” value is reported as inactive: -10.2% [at 87.6 µM].
For Cc1cccc(-c2cccc(CN3CCC(NC(=O)Nc4ccccc4)CC3)c2)c1, the Potency was inconclusive: 39.8 µM [cytotoxic, single point].
With Fc1ccccc1CN1CCNc2cnc(Oc3ccccc3)cc2C1 the “activity change, negative = cytotoxicity” value was inactive: 2.05% [at 87.6 µM].
With CCN1CCN(C(c2ccc(F)cc2)c2sc3nc(-c4ccco4)nn3c2O)CC1 (stereo not given) the Potency was inconclusive: 0.224 µM [cytotoxic, full curve, poor fit].
For O=C(Nc1ccc(Cl)cc1)N1Cc2[nH]cnc2C[C@H]1c1nc(-c2ccc(OC(F)(F)F)cc2)no1, the Potency was inconclusive: 25.1 µM [cytotoxic, single point].
In the case of COc1ccc(-c2cc(C(=O)N3CCOC(c4ccc(F)cc4)C3)[nH]n2)cc1 (stereo not given), the “activity change, negative = cytotoxicity” value is reported as inactive: -19.1%.
With COc1ccc(-c2nc(C(C)C)nc3c2CCN(C(=O)c2ccc(C(F)(F)F)cc2)CC3)cc1 the “activity change, negative = cytotoxicity” value was inactive: -17.1%.
In the case of CCCCCNC(=O)CC(c1cccc(OC)c1OC)c1c[nH]c2ccccc12 (stereo not given), the “activity change, negative = cytotoxicity” value is reported as inactive: -14.7%.
In the case of Cc1cccc(N2C(=O)N(Cc3cccc(C#N)c3)c3ccccc3S2(=O)=O)c1, the Potency is reported as inconclusive: 22.4 µM [cytotoxic, partial curve].
For O=C1CC2(CCN([S+](=O)([O-])c3cccs3)CC2)Oc2ccccc2N1, the Potency was inconclusive: 39.8 µM [cytotoxic, single point].
For COc1cccc(Nc2ncc3nc(-c4cccs4)c(=O)n(Cc4cccs4)c3n2)c1, the Potency was inconclusive: 6.31 µM [rising, partial curve].
For CC1(C)C(=O)N(Cc2ccccc2)[C@H]2CN(CC3CCOC3)C[C@H]2[S+]1(=O)[O-] (stereo not given in full), the “activity change, negative = cytotoxicity” value was inactive: 0.195% [at 87.6 µM].
In the case of COc1cccc(Cn2c(=O)c(-c3ccc(Cl)cc3)nc3cnc(N4CCN(C)CC4)nc32)c1, the Potency is reported as inconclusive: 6.31 µM [rising, partial curve].
In the case of Cn1nc(C2CCCN(C(=O)CCC3CCCC3)C2)n(Cc2ccccc2)c1=O (stereo not given), the Potency is reported as inconclusive: 20 µM [cytotoxic, partial curve, poor fit].
In the case of COc1ccc(S(=O)(=O)NCCc2nnc3ccc(SCC(=O)Nc4cc(C)cc(C)c4)nn23)cc1, the Potency is reported as inconclusive: 20 µM [cytotoxic, partial curve, poor fit].
With Cc1ccc(-c2nc3c(c(SCC(=O)N(C)c4ccccc4)n2)Cc2c(CO)cnc(C)c2O3)cc1 the Potency was inconclusive: 28.2 µM [cytotoxic, partial curve, poor fit].
With COc1ccc(NC(=O)c2nc3sccn3c2-c2ccncc2)cc1 the Potency was inconclusive: 5.01 µM [cytotoxic, full curve, poor fit].
For COc1cc2c(Oc3ccc(-c4cnc(Nc5ccc(F)cc5)n(C)c4=O)cc3F)ccnc2cc1OCCCN1CCOCC1, the Potency was inconclusive: 2.15 µM [cytotoxic, full curve].
